In all, about 310,000 compounds went through this assay and about 14,000 (4.5%) showed an effect of 50% or more. The effect is printed as a negative number. Some of the results follow.
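Note: peak tail current of the secondary pulse compared with the same well before compound.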

For this assay, the target named is human ether-à-go-go-related gene (hERG) potassium channel (human, UniProt Q12809). Description: primary screen, population patch clamp on CHO cells stably expressing hERG.
Sequence of human ether-à-go-go-related gene (hERG) potassium channel (Q12809 whole entry, looked up): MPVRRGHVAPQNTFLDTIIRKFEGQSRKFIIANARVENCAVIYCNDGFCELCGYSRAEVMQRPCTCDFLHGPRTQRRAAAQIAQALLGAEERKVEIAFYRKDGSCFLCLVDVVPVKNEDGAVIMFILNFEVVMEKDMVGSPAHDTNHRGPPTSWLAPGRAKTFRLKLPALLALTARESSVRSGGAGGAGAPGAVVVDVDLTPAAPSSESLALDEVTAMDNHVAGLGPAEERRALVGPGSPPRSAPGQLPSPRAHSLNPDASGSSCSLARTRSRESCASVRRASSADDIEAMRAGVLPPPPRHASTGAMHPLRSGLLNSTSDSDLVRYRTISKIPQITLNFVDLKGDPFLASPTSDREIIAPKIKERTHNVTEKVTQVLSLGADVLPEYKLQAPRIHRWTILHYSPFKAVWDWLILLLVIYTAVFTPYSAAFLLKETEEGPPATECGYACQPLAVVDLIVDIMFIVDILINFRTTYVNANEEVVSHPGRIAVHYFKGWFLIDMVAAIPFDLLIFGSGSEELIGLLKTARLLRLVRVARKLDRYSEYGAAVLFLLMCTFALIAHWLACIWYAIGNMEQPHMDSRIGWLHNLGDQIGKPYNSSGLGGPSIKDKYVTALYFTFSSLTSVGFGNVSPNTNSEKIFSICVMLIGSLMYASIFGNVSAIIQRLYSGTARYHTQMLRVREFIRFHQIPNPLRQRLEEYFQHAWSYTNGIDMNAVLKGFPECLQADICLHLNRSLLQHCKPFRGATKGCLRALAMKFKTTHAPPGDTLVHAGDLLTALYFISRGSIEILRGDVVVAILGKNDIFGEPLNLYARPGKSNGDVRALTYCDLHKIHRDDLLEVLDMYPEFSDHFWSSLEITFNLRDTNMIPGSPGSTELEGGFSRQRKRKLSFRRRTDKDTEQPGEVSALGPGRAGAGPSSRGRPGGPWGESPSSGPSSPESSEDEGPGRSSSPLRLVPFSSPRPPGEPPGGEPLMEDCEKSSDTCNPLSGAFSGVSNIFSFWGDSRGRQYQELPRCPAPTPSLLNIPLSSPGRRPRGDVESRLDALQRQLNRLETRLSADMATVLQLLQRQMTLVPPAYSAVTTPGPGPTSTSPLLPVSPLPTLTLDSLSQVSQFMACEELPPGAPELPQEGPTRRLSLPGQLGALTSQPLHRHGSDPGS
As to `Cc1ccc2c(c1)C(=O)CC(O)(C(F)F)O2` (stereo not drawn), the “hERG current change (%, negative = inhibition) at 10uM” value is on record as 19.3%.

`CC1=C(C(=O)OCC2CCCO2)C(c2ccc(O)cc2)NC(=O)N1` (stereo not drawn): the “hERG current change (%, negative = inhibition) at 10uM” value is on record as -6.08%.

Regarding `CN(C)/C=C/C(=O)c1ccc2noc(-c3cccc(F)c3)c2c1`, the “hERG current change (%, negative = inhibition) at 10uM” value is on record as -50.2%.

In the case of `c1ccc(-c2cnnc(SCc3cn4cccnc4n3)n2)cc1`, the “hERG current change (%, negative = inhibition) at 10uM” value is -12.8%.

Turning to `O=C(Nc1ccc(F)cc1)c1cc(S(=O)(=O)N2CCOCC2)cs1`, the “hERG current change (%, negative = inhibition) at 10uM” value is recorded as -11%.

Regarding `Cc1cccc(OCC(=O)Nc2cc(NC(=O)COc3cccc(C)c3)cc(C(=O)O)c2)c1`, the “hERG current change (%, negative = inhibition) at 10uM” value was 26.2%.

On to `N/C(=N\OC(=O)c1ccc2c(c1)OCO2)c1ccc(Cl)cc1`, for which the “hERG current change (%, negative = inhibition) at 10uM” value was -2.2%.

For `O=C(NCCc1ccccc1)c1noc2c1CCc1ccccc1-2`, the “hERG current change (%, negative = inhibition) at 10uM” value amounted to 5.03%.

Consider `OC(CN1CCN(c2ccc(C(F)(F)F)cn2)CC1)c1ccccc1` (stereo not drawn), for which the “hERG current change (%, negative = inhibition) at 10uM” value is on record as -26.5%.

In the case of `Cc1ccc2[nH]c3c(=O)n(CCN4CCNCC4)cnc3c2c1`, the “hERG current change (%, negative = inhibition) at 10uM” value is recorded as 7.36%.

With `Cn1c(=O)c2c(nc(N3CCc4ccccc4C3)n2Cc2ccc(Br)cc2)n(C)c1=O`, the “hERG current change (%, negative = inhibition) at 10uM” value is recorded as 3.83%.

In the case of `CCOC(Cn1cc(C)c(=O)[nH]c1=O)OCC`, the “hERG current change (%, negative = inhibition) at 10uM” value is -2.39%.

On to `COC(=O)C1=C(c2ccc(OCc3ccccc3)cc2)C[C@@H]2CC[C@H]1N2C(=O)NCCCc1ccccc1`, for which the “hERG current change (%, negative = inhibition) at 10uM” value is recorded as 7.71%.

In the case of `COc1ccc(CCN=C(N)NS(=O)(=O)c2ccc(OC)cc2)cc1`, the “hERG current change (%, negative = inhibition) at 10uM” value came out at 1.38%.

As for `COc1cc(CN2CC=C(c3ccc(F)cc3)CC2)cc(OC)c1`, the “hERG current change (%, negative = inhibition) at 10uM” value was -57.3%.

Consider `COn1c(SCC(N)=O)nc2ccccc2c1=O`, for which the “hERG current change (%, negative = inhibition) at 10uM” value is listed as 5.75%.

Take `O=S(=O)(Nc1ccc(-n2cccc2)cc1)c1ccc(Cl)c(Cl)c1`: the “hERG current change (%, negative = inhibition) at 10uM” value turned out to be 8.73%.

In the case of `O=C(N/C(=C/c1cccs1)C(=O)N1CCCCCC1)c1ccccc1`, the “hERG current change (%, negative = inhibition) at 10uM” value is recorded as -21%.

For the compound `CC(C)(C)n1nnnc1C(c1ccc2ncccc2c1)N1CCSCC1` (stereo not drawn), the “hERG current change (%, negative = inhibition) at 10uM” value is -18.1%.

With `CCOc1ccc(CNS(=O)(=O)c2cccs2)cc1OCC`, the “hERG current change (%, negative = inhibition) at 10uM” value was determined as 21.2%.

For the compound `CCOC(=O)C1CCN(S(=O)(=O)c2ccc(OC)c(Cl)c2)CC1`, the “hERG current change (%, negative = inhibition) at 10uM” value is recorded as 9.79%.

Consider `CCOC(=O)C(C)/C(C)=N\Nc1ccc([N+](=O)[O-])cc1[N+](=O)[O-]` (stereo not drawn), for which the “hERG current change (%, negative = inhibition) at 10uM” value is on record as -53.2%.

For the compound `O=C1CSC(c2ccccn2)N1c1ccc(Br)cc1` (stereo not drawn), the “hERG current change (%, negative = inhibition) at 10uM” value came to 2.79%.

Take `CCN1CCN(c2c(Cl)cccc2NC(=O)c2ccc3c(c2)OCCO3)CC1`: the “hERG current change (%, negative = inhibition) at 10uM” value is recorded as -38.4%.

Take `COCCN1Cc2cccc(C(=O)NC(C)c3cccs3)c2C1=O` (stereo not drawn): the “hERG current change (%, negative = inhibition) at 10uM” value stood at 5.63%.

In the case of `CCN(CC)S(=O)(=O)c1ccc(Cl)c(C(=O)NCCN2CCOCC2)c1.Cl`, the “hERG current change (%, negative = inhibition) at 10uM” value is reported as 4.2%.

On to `COc1ccccc1NC(=O)c1ccc2nc(C)c(C)nc2c1`, for which the “hERG current change (%, negative = inhibition) at 10uM” value was -16.1%.

On to `CCC1Oc2ccc(C)cc2N(CC(=O)NCCCN2CCCCC2C)C1=O` (stereo not drawn), for which the “hERG current change (%, negative = inhibition) at 10uM” value came to 3.15%.

Turning to `COc1ccc2[nH]cc(/C=N/NS(=O)(=O)c3ccc(C)cc3)c2c1`, the “hERG current change (%, negative = inhibition) at 10uM” value is reported as -5.27%.

Consider `CCOC(=O)c1ccc(N/C=C2\CCCCC2=O)cc1`, for which the “hERG current change (%, negative = inhibition) at 10uM” value turned out to be 1%.

As for `CC(=O)C1=C(O)C(=O)N(c2ccc(O)cc2)C1c1cccc([N+](=O)[O-])c1` (stereo not drawn), the “hERG current change (%, negative = inhibition) at 10uM” value is recorded as 23.7%.

Consider `CN1C(=O)C(Cc2cccs2)C(=O)N(C)C1=O`, for which the “hERG current change (%, negative = inhibition) at 10uM” value amounted to 13.4%.

Consider `O=C(CN1CCN(c2ccccc2)CC1)Nc1cccc([N+](=O)[O-])c1`, for which the “hERG current change (%, negative = inhibition) at 10uM” value is recorded as 2.69%.

As for `O=C(NCc1ccccn1)c1nn(-c2ccccc2)c(=O)c2ccccc12`, the “hERG current change (%, negative = inhibition) at 10uM” value is on record as -8.15%.

With `CC(C)CCC(C)NC(=O)CN1C(=O)NC(C)(c2ccc3ccccc3c2)C1=O` (stereo not drawn), the “hERG current change (%, negative = inhibition) at 10uM” value worked out at 3.29%.

As for `CCN(CC(=O)Nc1c(F)cccc1F)C(=O)CSc1ccccc1`, the “hERG current change (%, negative = inhibition) at 10uM” value worked out at 8.37%.

Take `COc1cc(C(=O)/C=C/c2cccnc2)ccc1O`: the “hERG current change (%, negative = inhibition) at 10uM” value is -13%.

`C=CCN(C(=O)CSc1nc2c(sc3ccccc32)c(=O)n1CCN(CC)CC)c1ccccc1`: the “hERG current change (%, negative = inhibition) at 10uM” value is listed as -77.4%.

Turning to `CCCOc1ccc(/C=C2/C(=O)ON=C2C)cc1OCC`, the “hERG current change (%, negative = inhibition) at 10uM” value is 15.3%.

Regarding `CC(=O)N/C(=C/c1ccc([N+](=O)[O-])cc1)C(=O)O`, the “hERG current change (%, negative = inhibition) at 10uM” value is given as 14.9%.

`CCN(CC)C1CCN(C(=O)c2cc(COc3ccc(F)cc3Cl)on2)C1` (stereo not drawn): the “hERG current change (%, negative = inhibition) at 10uM” value is on record as -70%.

`CCOc1ccccc1OCC(=O)N/N=C(\C)Cc1ccc(OC)cc1`: the “hERG current change (%, negative = inhibition) at 10uM” value is on record as -14.8%.

Regarding `N=c1c2c(-c3ccccc3)c(-c3ccccc3)n(Cc3ccco3)c2ncn1CCCO`, the “hERG current change (%, negative = inhibition) at 10uM” value is reported as -68.5%.

For the compound `CC(NC(=S)Nc1ccc(OC(F)F)c(Cl)c1)C(C)(C)C` (stereo not drawn), the “hERG current change (%, negative = inhibition) at 10uM” value worked out at 17.4%.

Turning to `Nc1ccc(C(=O)NC23CC4CC(CC(C4)C2)C3)cc1`, the “hERG current change (%, negative = inhibition) at 10uM” value is on record as 16.3%.

On to `CC(C)(C)OC(=O)N1CCN(CCNC(=O)c2ccccc2)CC1`, for which the “hERG current change (%, negative = inhibition) at 10uM” value worked out at 13.2%.

For `COc1ccccc1N1CCN(C(=O)c2coc(=O)c(Br)c2)CC1`, the “hERG current change (%, negative = inhibition) at 10uM” value was determined as 20.1%.

As to `Cc1ccc(-c2nc3cccnc3s2)cc1NS(=O)(=O)c1cccs1`, the “hERG current change (%, negative = inhibition) at 10uM” value is on record as -14.8%.

With `COc1ccc(S(=O)(=O)Nc2ccc(NC(C)=O)cc2)cc1[N+](=O)[O-]`, the “hERG current change (%, negative = inhibition) at 10uM” value came to 16.7%.

Consider `Cc1cc(C)c(OCC(=O)NCC2CCCO2)c(C)c1` (stereo not drawn), for which the “hERG current change (%, negative = inhibition) at 10uM” value came out at 8.13%.

For the compound `CC(C)(C)NC(=O)NC(=O)CN1CCN(c2cccc(Cl)c2)CC1`, the “hERG current change (%, negative = inhibition) at 10uM” value was -3.18%.

In the case of `COCCCNC(=O)c1cc(Sc2nnc(C)s2)nc2ccccc12`, the “hERG current change (%, negative = inhibition) at 10uM” value is on record as 2.3%.

For the compound `CCOC(=O)c1sc(NC(=O)CSc2nccc(C)n2)c(C#N)c1C`, the “hERG current change (%, negative = inhibition) at 10uM” value is -4.68%.

As to `COc1ccc(C(C(=O)NCCC(C)C)N(CCCO)C(=O)c2snc(C(N)=O)c2N)cc1OC` (stereo not drawn), the “hERG current change (%, negative = inhibition) at 10uM” value is 13.9%.

In the case of `CC1(C)OC(=O)C(=CNCC(O)c2ccccc2)C(=O)O1` (stereo not drawn), the “hERG current change (%, negative = inhibition) at 10uM” value was determined as 4.51%.

As for `CN(C)C=NC(=O)c1cc(C(=O)c2ccc(Cl)cc2)c[nH]1`, the “hERG current change (%, negative = inhibition) at 10uM” value is on record as -1.24%.

Take `COc1ccc(Cl)cc1NC(=S)NCCC(c1ccccc1)c1ccccc1`: the “hERG current change (%, negative = inhibition) at 10uM” value is 5.22%.

For the origin of these results see PMC4336329 (PLoS ONE, 2015).
